# PubChem BioAssay AID1347073 (National Center for Advancing Translational Sciences (NCATS), 2019)
# Out of some 45,000 compounds screened, about 200 (0.44%) were called active. Inconclusive results (about 7%) are left out. The call rests on the fitted dose curve; in most records, active means well fitted activation curve with a large enough effect; inconclusive means small, poorly fitted or top-dose-only effect; inactive means no such curve, though single readings can be large or run the other way. This is one part of the list.
# Assay: qHTS of TDP-43 Inhibitors: NCGC Sytravon Library Screen; further: 0% is about no effect; nearly all actives have a fitted effect of over 55% in size
# Details: yeast TDP-43 toxicity rescue, BacTiter-Glo growth, 24 h; series mostly up to 46.1 µM; growth rescue (activation): at the top concentration
# Summary of the method: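 TDP-43-expressing yeast, pregrown in raffinose, seeded at OD600 0.02 in galactose medium with compound for 24 hr at 30 deg C. Growth read by BacTiter-Glo luminescence, so rescue of toxicity appears as activation.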
row,Compound,growth rescue (activation)
1,CCCNC(=O)C1(C)CCN(C(=O)c2ccc(F)c(Cl)c2)C1 (stereo not drawn),inactive: -4.83%
2,Cc1ccc(Oc2nc3ccccn3c(=O)c2/C=C(\C#N)C(=O)Nc2c(C)n(C)n(-c3ccccc3)c2=O)cc1,inactive: 4.58%
3,O=C(N/N=C/c1ccc(O)cc1O)C(=O)N/N=C/c1ccc(O)cc1O,inactive: -4.88%
4,Cc1ccc(-c2nn(-c3ccccc3)cc2/C=N/O)cc1,inactive: 19.3%
5,O=C(COC(=O)CCCNC(=O)c1ccc(Cl)cc1)Nc1cc(Cl)c(Cl)cc1Cl,inactive: 7.17%
6,O=C(CSc1n[nH]c(=O)[nH]c1=O)c1ccc(Cl)cc1Cl,inactive: -2.28%
7,O=C(OCCN=C1NS(=O)(=O)c2ccccc21)c1cccc([N+](=O)[O-])c1,inactive: 12.4%
8,O=C(O)COc1ccccc1C=NNc1ccc([N+](=O)[O-])cc1S(=O)(=O)Nc1ccc(Cl)cc1,inactive: 16.7%
9,CCSc1nnc(-c2cc(Br)ccc2N)c(=O)[nH]1,inactive: 8.96%
10,CCc1ccccc1NC(=O)C1CCN(C(=O)c2ccc([N+](=O)[O-])cc2)CC1,inactive: 5.26%
11,COc1ccc(NC(=O)CCC(=O)Nc2ccc3nc(N4CCOCC4)cc(C)c3c2)c(OC)c1,inactive: -1.01%
12,O=S(=O)(/N=C(/Nc1ccccn1)c1ccc(Cl)cc1)c1ccc(Cl)cc1,inactive: 25.2%
13,O=C(c1cc(-c2ccc(Br)cc2)on1)N1CCCCCC1,inactive: 7.63%
14,CCOC(=O)C1(Cc2cccc(OC)c2)CCN(Cc2cccn2-c2nccs2)CC1,inactive: -13.7%
15,CC(Oc1ccccc1)C(=O)NC1C(=O)N2C1SC(C)(C)C2C(=O)O (stereo not drawn),inactive: -16.2%
16,O=C(Nc1nc2ccccc2s1)c1ccc2c(c1)OCO2,inactive: -6.85%
17,O=C(Nc1c(-c2ccccc2)nc2ccc(Cl)cn12)c1cccs1,inactive: -1.5%
18,O=C(COC(=O)CCCSc1nc2ccccc2[nH]1)Nc1ccc(Cl)cc1,inactive: -5.04%
19,CCOC(=O)C1CCCN(c2nc3ccccc3nc2C(C#N)C(=O)OCC)C1 (stereo not drawn),inactive: -1.26%
20,Cc1ccc(C(=O)NCCCNC(=O)COc2ccc(Cl)cc2)cn1,inactive: 2.8%
21,O=C(NCc1ccccc1)C1(c2cccc(F)c2)CCCC1,inactive: 24.1%
22,Cc1c(NC(=O)c2ccc(-c3ccc([N+](=O)[O-])cc3Cl)o2)c(=O)n(-c2ccccc2)n1C,inactive: 0.857%
23,COc1ccc(C(NC(=O)C2CCN(CCOc3ccc(Cl)cc3Cl)CC2)c2cccs2)cc1 (stereo not drawn),inactive: -0.919%
24,CCOC(=O)/C(C#N)=C/C=C1/C=CC=CN1C,inactive: -2.81%
25,N#C/C(=C\N1CCOCC1)C(N)=O,inactive: -4.29%
26,CCNS(=O)(=O)c1ccc(NC(=O)c2c(-c3ccccc3)noc2C)cc1,inactive: 4.34%
27,Nc1cccc(-n2nnnc2CN2CCOCC2)c1,inactive: -4.42%

row,Compound,growth rescue (activation)
1,COC1CCN(C(=O)CC2C(=O)NCCN2CC2CCCCC2)CC1 (stereo not drawn),inactive: 1.82%
2,CCOC(=O)C1=C(CS(=O)(=O)c2ccccc2)NC(=O)NC1c1cccc(OC)c1 (stereo not drawn),inactive: -12.4%
3,Cc1ccc(OCC(=O)Nc2ccc(S(=O)(=O)N3CCCC3)cc2)cc1,inactive: 15.7%
4,CC(C)Nc1ncnc2c1ncn2[C@H]1CN(Cc2ccc(F)cc2)C[C@@H](CO)O1,inactive: 10.1%
5,Cc1nn(-c2ccccc2)c2c1C(c1cccc([N+](=O)[O-])c1)N(c1ccccc1)C(=O)N2 (stereo not drawn),inactive: -1.22%
6,CNc1ccc(-c2cccc(C(=O)N3CCOCC3)c2)cn1,inactive: 3.76%
7,CC(=O)N1Cc2ccccc2CC1C(=O)NCc1ccccc1F (stereo not drawn),inactive: 0.407%
8,CCOC(=O)c1sc(NC(=O)c2ccc(=O)[nH]c2)nc1C,inactive: -2.21%
9,CN1C=CC=C/C1=C1\SC(=S)N(c2ccccc2)C1=O,inactive: 7.34%
10,O=C(/C=C/c1ccc(Cl)cc1)Nc1ccccc1N1CCOCC1,inactive: 16.4%
11,CCNc1ccc(S(=O)(=O)N(C)C)cc1NCC(=O)Nc1ccccc1Cl,inactive: -19%
12,COC(=O)c1cc(COC(=O)COc2ccc(C)c(C)c2)oc1C,inactive: -5.75%
13,CCOc1ccc(N2C(=O)S/C(=C\c3cccn3C)C2=O)cc1,inactive: 14%
14,CC(C)NC(=O)C(c1ccc(F)cc1)N(C(=O)CCC(=O)Nc1ccccn1)c1cccc(F)c1 (stereo not drawn),inactive: -10.4%
15,COc1cccc(NC(=O)Cc2nnc(SCC(=O)NC3CCCCC3)n2C)c1,inactive: -58.6%
16,CS(=O)(=O)Cc1ccc(C(=O)NNC(=O)c2cc(-c3ccccc3)n[nH]2)cc1,inactive: 3.35%
17,O=c1nc(N/N=C/c2ccccn2)cn[nH]1,inactive: -0.134%
18,CC(=O)Nc1cccc(-c2ccnc3c2CC(C(=O)Nc2ccc(F)c(Cl)c2)O3)c1 (stereo not drawn),inactive: 13.4%
19,Cc1onc(-c2ccccc2Cl)c1C(=O)N1CC(C)CC(C)C1 (stereo not drawn),inactive: 4.06%
20,CCn1nnc(-c2ccc(N)cc2)n1,inactive: 6.39%
21,CCN1CCN(CC(=O)c2cc(OC)c(OC)c(OC)c2)CC1,inactive: 0.177%
22,O=C(N/N=C\C=C\c1ccc(Br)cc1)c1ccc2c(c1)OCO2,inactive: 8.82%
23,Cc1ccc(C)c(S(=O)(=O)NC(CC(C)C)C(=O)O)c1 (stereo not drawn),inactive: -15.8%
24,COc1cc(NC(=O)CSc2ccccc2)c(C(=O)O)cc1OC,inactive: -0.803%
25,CCc1ccc(NC(=O)COc2ccc(/C=C(/C#N)c3nc4ccccc4[nH]3)cc2OC)cc1,inactive: -1.37%
26,O=C(N=C1SCC(=O)N1c1ccccc1)c1ccco1,inactive: 23.7%
